Assay results reported in the supplement of paper PMC4967469.
By IC50 is meant the dose at which the fit gives 50% viability; fits outside the tested doses are given as limits. AUC is the area under the same curve over the 256-fold range up to the top dose, as a fraction; it is 1 without any effect and falls as sensitivity rises. For some assays here: The top dose, if marked as inferred, was calculated from the reported fits. For some assays here: Where an entry number is given, a second screen of the drug exists; the two often differ.

Columns and labels:
Test in all cases: Viability of human cancer cell lines after 72 h of drug (GDSC screen)
MP470 = compound: S=C(NCc1ccc2c(c1)OCO2)N1CCN(c2ncnc3c2oc2ccccc23)CC1 [MP470]; conditions: top dose 20 µM; top dose inferred
Experimental: (§1)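 Human cancer cell lines in 384-well plates, medium with 10% serum, drug for 72 h over a 256-fold dose range (nine 2-fold or five 4-fold steps up to the top dose). Adherent lines were fixed and stained with the nucleic acid dye Syto60, suspension lines read with resazurin; signal relative to control wells, capped at 0 and 100%. One two-parameter sigmoid per drug and line, fitted in a mixed model over all curves with the slope shared within a line.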

LFM-A13 = compound: C/C(O)=C(\C#N)C(=O)Nc1cc(Br)ccc1Br [LFM-A13]; conditions: top dose 16 µM; top dose inferred
Experimental: as §1

AUY922 = compound: CCNC(=O)c1noc(-c2cc(C(C)C)c(O)cc2O)c1-c1ccc(CN2CCOCC2)cc1 [AUY922]; conditions: top dose 0.256 µM; top dose inferred
Experimental: as §1

GNF-2 = compound: NC(=O)c1cccc(-c2cc(Nc3ccc(OC(F)(F)F)cc3)ncn2)c1 [GNF-2]; conditions: top dose 1.28 µM; top dose inferred
Experimental: as §1

Bicalutamide = compound: CC(O)(CS(=O)(=O)c1ccc(F)cc1)C(=O)Nc1ccc(C#N)c(C(F)(F)F)c1 [Bicalutamide]; conditions: top dose inferred
Experimental: as §1

T0901317 = compound: O=S(=O)(c1ccccc1)N(CC(F)(F)F)c1ccc(C(O)(C(F)(F)F)C(F)(F)F)cc1 [T0901317]; conditions: top dose 10.24 µM; top dose inferred
Experimental: as §1

Nilotinib = compound: Cc1cn(-c2cc(NC(=O)c3ccc(C)c(Nc4nccc(-c5cccnc5)n4)c3)cc(C(F)(F)F)c2)cn1 [Nilotinib]; conditions: top dose 2 µM
Experimental: as §1

KIN001-270 = compound: Cc1ccc(Nc2cc(-c3cccc(N4C(=O)c5ccccc5C4=O)c3)ncn2)cc1NS(C)(=O)=O [KIN001-270]; conditions: top dose 20 µM; top dose inferred
Experimental: as §1

Gemcitabine = compound: Nc1ccn([C@@H]2O[C@H](CO)[C@@H](O)C2(F)F)c(=O)n1 [Gemcitabine]; conditions: top dose 1.024 µM
Experimental: as §1

TW-37 = compound: CC(C)c1ccccc1Cc1cc(C(=O)Nc2ccc(S(=O)(=O)c3ccccc3C(C)(C)C)cc2)c(O)c(O)c1O [TW-37]; conditions: top dose 5 µM
Experimental: as §1

[1] = top dose 1.024 µM, screen: GDSC drug entry 150
[2] = top dose 10 µM, screen: GDSC drug entry 1502

Row | Cell Line | AUC (MP470) | IC50 (MP470) | AUC (LFM-A13) | IC50 (LFM-A13) | AUC (AUY922) | IC50 (AUY922) | AUC (GNF-2) | IC50 (GNF-2) | AUC (Bicalutamide; [1]) | IC50 (Bicalutamide; [1]) | AUC (Bicalutamide; [2]) | IC50 (Bicalutamide; [2]) | AUC (T0901317) | IC50 (T0901317) | AUC (Nilotinib) | IC50 (Nilotinib) | AUC (KIN001-270) | IC50 (KIN001-270) | AUC (Gemcitabine) | IC50 (Gemcitabine) | AUC (TW-37) | IC50 (TW-37)
1 | KP-N-YN (neuroblastoma, adherent) | 0.891 | > 20000 nM | 0.987 | > 16000 nM | 0.897 | > 256 nM | 0.979 | > 1280 nM | 0.984 | > 1020 nM | 0.985 | > 10000 nM | 0.959 | > 10200 nM | 0.982 | > 2000 nM | 0.982 | > 20000 nM |  |  |  | 
2 | LB647-SCLC (small cell lung carcinoma, semi-adherent) |  |  | 0.965 | > 16000 nM | 0.831 | 189 nM | 0.947 | > 1280 nM | 0.985 | > 1020 nM |  |  |  |  | 0.985 | > 2000 nM |  |  | 0.221 | 8.68 nM | 0.625 | 724 nM
3 | MC116 (B-cell lymphoma, suspension) | 0.926 | 14100 nM | 0.999 | > 16000 nM | 0.573 | 24 nM | 0.999 | > 1280 nM | 0.999 | > 1020 nM | 0.998 | > 10000 nM | 0.997 | > 10200 nM | 0.999 | > 2000 nM | 0.915 | 13100 nM |  |  | 0.491 | 298 nM
4 | NB17 (neuroblastoma, adherent) | 0.698 | 4930 nM |  |  |  |  | 0.983 | > 1280 nM |  |  |  |  |  |  | 0.952 | > 2000 nM | 0.944 | > 20000 nM |  |  | 0.649 | 866 nM
